According to the supplement of paper PMC10498489:
About 330 (14%) of roughly 2,300 compounds showed activity.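 The calls were made as follows: active = median modified Z-score above 1.96; inactive = 1.96 or below.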 The list shows a part of the results, in another mix than the full data.

These compounds were tested on HepG2 Srxn1-GFP reporter cells (+30 nM CDDO-Me) (assay: Srxn1-GFP intensity median modified Z-score relative to plate median; higher = stronger NRF2 / oxidative stress reporter activation, active = hit call of the paper). Settings: 10 µM; exposure time: 24h.
Method in brief: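 In 96-well plates holding 20,000 HepG2 Srxn1-GFP BAC reporter cells per well, compound at 10 μM and an NRF2 activator at 30 nM were added together for 24 h, with DMSO at ≤0.1%, across three replicate plates. After fixation in formaldehyde and Hoechst staining, confocal images were analysed cell by cell for cytoplasmic GFP, and images containing under 100 cells were excluded. Values are replicate medians of the per-plate modified Z-score of GFP intensity, scaled by 1.4826 × median absolute deviation.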

| Compound | Srxn1-GFP intensity median modified Z-score |
| --- | --- |
| OCc1ccccn1 [euspeclibcmpd1277] | inactive: 0.0555 |
| CC1COc2c(N3CCN(C)CC3)c(F)cc3c(=O)c(C(=O)O)cn1c23 (configuration not stated) [euspeclibcmpd2404] | inactive: 0.0498 |
| CN1CCN(c2cc3c(cc2F)c(=O)c(C(=O)O)cn3-c2ccc(F)cc2)CC1 [euspeclibcmpd484] | inactive: -0.24 |
| CC1(C)SC2C(NC(=O)Cc3ccccc3)C(=O)N2C1C(=O)O (configuration not stated) [euspeclibcmpd2283] | inactive: 0.484 |
| CC(=O)SCC(Cc1ccccc1)C(=O)NCC(=O)OCc1ccccc1 (configuration not stated) [euspeclibcmpd1089] | inactive: -0.455 |
| CC(=O)O[C@H]1CC[C@@]2(C)C(=CCC3C2CC[C@@]2(C)C3CC[C@@H]2C(C)CCCC(C)C)C1 (some centres not stated) [euspeclibcmpd2217] | inactive: -0.115 |
| CC(C)=CCCC1(C)C=Cc2c(O)c3c(c(CC=C(C)C)c2O1)OC12C(CC4CC1C(C)(C)OC2(C=CC(C)C(=O)O)C4O)C3=O (configuration not stated) [euspeclibcmpd1941] | active: 50.9 |
| CC(=O)Oc1ccc(O)cc1 [euspeclibcmpd2324] | active: 5.59 |
| CC(C)C(=O)Nc1ccc([N+](=O)[O-])c(C(F)(F)F)c1 [euspeclibcmpd362] | active: 3.07 |
| Cn1cnc([N+](=O)[O-])c1Sc1ncnc2[nH]cnc12 [euspeclibcmpd29] | active: 2.86 |
| CC(=O)Oc1cc2c(s1)CCN(C(C(=O)C1CC1)c1ccccc1F)C2 (configuration not stated) [euspeclibcmpd1049] | inactive: 1.63 |
| O=C(O)CSCC(=O)NC1CCSC1=O (configuration not stated) [euspeclibcmpd1212] | inactive: -0.181 |
| CC(C)=CCOc1cc2oc(=O)ccc2cc1O [euspeclibcmpd1409] | inactive: 0.175 |
| Oc1c(C2=CC[C@@H](c3ccc(Cl)cc3)CC2)c(O)c2ccccc2c1O [euspeclibcmpd664] | active: 37.9 |
| C/C=C1\[C@H]2C=C(C)C[C@]1(N)c1ccc(=O)[nH]c1C2 [euspeclibcmpd1407] | inactive: -0.198 |
| O=C(Oc1cccc2cccnc12)c1ccccc1 [euspeclibcmpd773] | active: 12.8 |
| CN1CCC(OC(c2ccccc2)c2ccccc2)CC1 [euspeclibcmpd101] | inactive: -0.234 |
| CC12CCC3C(=CCc4cc(O)ccc43)C1CCC2=O (configuration not stated) [euspeclibcmpd1305] | inactive: 0.455 |
| CCC(C)[C@H]1O[C@]2(CC[C@@H]1C)C[C@@H]1C[C@@H](C/C=C(\C)[C@@H](OC3C[C@H](OC)C(O[C@H]4C[C@H](OC)[C@@H](O)[C@H](C)O4)[C@H](C)O3)[C@@H](C)/C=C/C=C3\CO[C@@H]4[C@H](O)C(C)=CC(C(=O)O1)[C@]34O)O2 (some centres not stated) [euspeclibcmpd982] | inactive: 0.921 |
| C[C@H]1COc2c(N3CCN(C)CC3)c(F)cc3c(=O)c(C(=O)O)cn1c23 [euspeclibcmpd2228] | inactive: 0.118 |
| CN(C)CCCN1c2ccccc2CCc2ccccc21 [euspeclibcmpd158] | inactive: 0.664 |
| C=C1CCC2C(CC2(C)C)C(=O)CCC1O (configuration not stated) [euspeclibcmpd1623] | inactive: -0.579 |
| COc1ccc(C(C)C(=O)c2ccc(O)cc2O)cc1 (configuration not stated) [euspeclibcmpd1599] | active: 3.33 |
| CN(C/C=C/C#CC(C)(C)C)Cc1cccc2ccccc12 [euspeclibcmpd767] | active: 3.24 |

| Compound | Srxn1-GFP intensity median modified Z-score |
| --- | --- |
| C[n+]1ccccc1C=NO [euspeclibcmpd2378] | inactive: 0.131 |
| C=CCSCC=C [euspeclibcmpd1525] | active: 2.8 |
| Cc1cccc(Nc2ccccc2C(=O)O)c1C | inactive: 0.337 |
| Cc1cccc(Nc2ccccc2C(=O)O)c1C [euspeclibcmpd373] | active: 2.69 |
| CCOc1ccc(NC(=O)CC(C)O)cc1 (configuration not stated) [euspeclibcmpd1247] | inactive: -0.424 |
| CC(=O)OC=C1CSC2C(NC(=O)Cc3cccs3)C(=O)N2C1C(=O)O (configuration not stated) [euspeclibcmpd2267] | inactive: 0.967 |
| O=C1CCC(N2C(=O)c3ccccc3C2=O)C(=O)N1 (configuration not stated) [euspeclibcmpd588] | inactive: -0.192 |
| O=C(Nc1ccccc1Cl)C1=NN(C2CCS(=O)(=O)C2)C(=O)CC1 (configuration not stated) | inactive: 1.26 |
| O=C(O)CCCCC1CCSS1 (configuration not stated) [euspeclibcmpd1157] | inactive: 0.0225 |
| N=c1ccn([C@H]2CC[C@@H](CO)O2)c(=O)[nH]1 [euspeclibcmpd485] | inactive: -0.378 |
| COc1ccc(-c2cc(=O)c3c(O)cc(OC)cc3o2)cc1 [euspeclibcmpd1440] | inactive: -0.308 |
| O=C(/C=C/C=C/c1ccc2c(c1)OCO2)N1CCCCC1 [euspeclibcmpd355] | inactive: -0.217 |
| COc1ccc(-c2cc(=O)c3c(OC)c(OC)c(OC)cc3o2)cc1OC [euspeclibcmpd1956] | inactive: 0.209 |
| C#CCN(C)CCCOc1ccc(Cl)cc1Cl [euspeclibcmpd834] | inactive: 1.05 |
| CC(C)NCC(O)c1cc(O)cc(O)c1 (configuration not stated) [euspeclibcmpd185] | inactive: -0.276 |
| CCC1(O)C=C(OC2CC(N(C)C)C(O)C(C)O2)c2c(cc3c(O)c4c(O)ccc(O)c4c(O)c3c2O)C1C(=O)OC (configuration not stated) [euspeclibcmpd1939] | active: 97.7 |
| COc1cc(/C=C/C(=O)N2CCCCCCC2)cc(OC)c1OC [euspeclibcmpd1272] | inactive: 0.06 |
| c1ccc(CN(CC2=NCCN2)c2ccccc2)cc1 [euspeclibcmpd501] | inactive: 0.198 |
| CC(=O)N(CC(O)CN(C(C)=O)c1c(I)c(C(=O)NCC(O)CO)c(I)c(C(=O)NCC(O)CO)c1I)c1c(I)c(C(=O)NCC(O)CO)c(I)c(C(=O)NCC(O)CO)c1I (configuration not stated) [euspeclibcmpd1935] | inactive: -0.176 |
| NC(=O)NS(=O)(=O)c1ccc(N)cc1 [euspeclibcmpd1009] | inactive: -0.532 |
| CC1(C)CC[C@]2(C)CC[C@]3(C)C(=CCC4[C@@]5(C)CC[C@H](O)C(C)(C)C5CC[C@]43C)C2C1 (some centres not stated) [euspeclibcmpd1345] | inactive: 1.93 |
| C=CCSCC1Nc2cc(Cl)c(S(N)(=O)=O)cc2S(=O)(=O)N1 (configuration not stated) [euspeclibcmpd348] | inactive: -0.336 |
| Cc1[nH]oc(=NS(=O)(=O)c2ccc(N)cc2)c1C [euspeclibcmpd283] | inactive: -0.063 |
| CC[C@@H](CO)NCCN[C@@H](CC)CO [euspeclibcmpd120] | inactive: -0.816 |

| Compound | Srxn1-GFP intensity median modified Z-score |
| --- | --- |
| CCN(CC)CCOCCOC(=O)C(CC)(CC)c1ccccc1 [euspeclibcmpd1221] | inactive: -0.566 |
| Nc1ccccc1C(=O)CC(N)C(=O)O (configuration not stated) [euspeclibcmpd1714] | inactive: -0.306 |
| CC(CN(C)C)CN1c2ccccc2Sc2ccccc21 (configuration not stated) [euspeclibcmpd308] | inactive: -0.246 |
| CC(C)CCCC(C)NC(C)C (configuration not stated) [euspeclibcmpd2040] | inactive: -0.125 |
| N=C(N)NCCN1CCCCCCC1 [euspeclibcmpd2200] | inactive: -0.141 |
| OC[C@H]1O[C@H](Oc2cc(O)cc(C=Cc3ccc(O)cc3)c2)[C@H](O)[C@@H](O)[C@@H]1O [euspeclibcmpd1401] | inactive: -0.514 |
| COc1cc(O)ccc1C(C)=O [euspeclibcmpd1664] | inactive: -0.449 |
| C=CCOC(Cn1ccnc1)c1ccc(Cl)cc1Cl (configuration not stated) [euspeclibcmpd2390] | active: 6.42 |
| O=C(OC[C@H]1O[C@H](OC(=O)c2cc(O)c(O)c(OC(=O)c3cc(O)c(O)c(O)c3)c2)[C@H](OC(=O)c2cc(O)c(O)c(OC(=O)c3cc(O)c(O)c(O)c3)c2)[C@@H](OC(=O)c2cc(O)c(O)c(OC(=O)c3cc(O)c(O)c(O)c3)c2)[C@@H]1OC(=O)c1cc(O)c(O)c(OC(=O)c2cc(O)c(O)c(O)c2)c1)c1cc(O)c(O)c(OC(=O)c2cc(O)c(O)c(O)c2)c1 [euspeclibcmpd649] | active: 8.09 |
| CCNC(=O)/C=C/c1cccc(Br)c1 [euspeclibcmpd2056] | inactive: 0.0693 |
| COc1ccccc1OCC(O)COC(N)=O (configuration not stated) [euspeclibcmpd189] | inactive: -0.108 |
| COc1ccc2c(=O)c(CC(=O)O)coc2c1 [euspeclibcmpd1386] | inactive: -0.383 |
| CNc1ccccc1C(=O)N1CCc2c([nH]c3ccccc23)C1=O [euspeclibcmpd1696] | inactive: 0.787 |
| CC(C)(O)c1ccccc1CC[C@@H](SCC1(CC(=O)O)CC1)c1cccc(/C=C/c2ccc3ccc(Cl)cc3n2)c1 [euspeclibcmpd2362] | active: 8.32 |
| O=C1NC(=O)C(c2ccccc2)(c2ccccc2)N1 [euspeclibcmpd2256] | inactive: -0.295 |
| FC(F)(F)COCC(F)(F)F [euspeclibcmpd1294] | inactive: -0.6 |
| CN1Cc2c(N)cccc2C(c2ccccc2)C1 (configuration not stated) [euspeclibcmpd995] | inactive: -0.176 |
| CC(=O)Oc1cccc(C)c1 [euspeclibcmpd1228] | inactive: -0.455 |
| CN(C)CC(c1ccc(O)cc1)C1(O)CCCCC1 (configuration not stated) [euspeclibcmpd680] | inactive: -0.56 |
| CN(C)c1ccc2nc3ccc(N(C)C)cc3[s+]c2c1 [euspeclibcmpd789] | active: 9.06 |
| CC1(C)CC2C1CCC1(C)OC2(C)CCC1O (configuration not stated) [euspeclibcmpd1567] | inactive: 0.0481 |
| OCc1ccccc1O [euspeclibcmpd264] | inactive: -0.00801 |
| O=C(c1ccccc1)c1ccc2n1CCC2C(=O)O (configuration not stated) [euspeclibcmpd635] | inactive: -0.00979 |
| COc1c(N2CCNC(C)C2)c(F)cc2c(=O)c(C(=O)O)cn(C3CC3)c12 (configuration not stated) [euspeclibcmpd1152] | inactive: 0.136 |
